For 33 sequences, binding signal results are on record in publication PMC6451091.

This is one part of the list. At the low end of the ranking, values are background and their order means little.

The assay deals with PU.1 (IVT) (UniProt P17947). Nature of the assay: protein-binding microarray (PBM). The following applies: 20 mM HEPES pH 7.9, 100 mM NaCl, 1 mM DTT, 0.2 mg/mL BSA, 0.02% Triton X-100, 2% milk, 0.4 mg/mL salmon testes DNA; 1 h; temperature not stated; high values mean tight binding; double strand, one strand shown; sequences stand for … in GCCTAGCAC…GTGCTAGGTCTTGATTCGCTTGACGCTGCTG
The sequence TTACTCTGTTACAAAATTGC gave a binding signal of -0.241 z-score.
With CCCATCACATATCTGTATCC the figure was -0.082 z-score.
For the sequence AGCTTTAAGAGCCAGTGCTC, the binding signal was -0.158 z-score.
To ATGAATAAATATCACTTGAT belongs -0.19 z-score; to TGAAATAATCCTGAGCTTTT, -0.456 z-score; to TATACAGAGGAGAATAATTA, -0.122 z-score.
With GCTATACTAAAAAGACATAT the figure was 0.0241 z-score; with GTGGGTTTGTCATTTGTATC, -0.356 z-score; with TTCCGGACCCTGCATTTCAC, 2.18 z-score.
To GGAGGAAGTCTTGAGGTGTT belongs 1.33 z-score; to TATTCATATGCGGGCAGGAA, 3.5 z-score; to CTGCTTTTGAGGACCTCAGG, 0.13 z-score.
As to TCAGTGGGGAAAGAATGATC, the binding signal was 0.135 z-score.
The sequence TTACATGGATGGGGATGTGG had a binding signal of 0.84 z-score.
As for CCACCCTCACTGCCTCTCTG, the binding signal is -0.603 z-score.
With TACAACAAAAACTACTATTC the figure was 0.0289 z-score; with CATCCTACTTTAAGTTTCTG, -0.232 z-score.
AGCACTTTTAATTGGCAGAG came in with a binding signal of -0.105 z-score.
The sequence AGAAACACTGCGTGAAACTG returned a binding signal of 0.0957 z-score.
In the case of TCTTGTAAAGCTTTTCCAAT, the binding signal is -0.135 z-score.
For GTCTTATTTCCTCAAAATAG, the binding signal worked out at 3.55 z-score.
With TTGGTAAAAGAGCAGCACGA, the binding signal was -0.028 z-score.
For the sequence CGCACCCCGCCTCCCTGGCC, the binding signal is -0.732 z-score.
Regarding AGAGCCTGACACCGCTGCTC, the binding signal is -0.563 z-score.
With GAGAGTAGCCTAGTCCCTAG the figure was -0.602 z-score; with TCAGAAGAGAATAGGAGTCC, -0.345 z-score; with GGTCCGTCCTCTTCCGGTGT, 0.224 z-score.
To GCTTTAACTGCCTGAAACTG belongs -0.499 z-score; to ATTGTATTTCATCACAGTCT, -0.317 z-score.
Turning to ACTTGTGAAGGAAATGAATC, the binding signal came out at 0.81 z-score.
For the sequence AGAAGAACTGCGTGAAAGAA, the binding signal was -0.0383 z-score.
Consider AGTCCTGAGTCAGAGGCAAG, for which the binding signal was -0.439 z-score.
CATGAATGAGATTTGGAACT: the binding signal is -0.11 z-score.
